PubChem BioAssay AID1347165 (National Center for Advancing Translational Sciences (NCATS), 2019)
Out of some 220,000 compounds screened, about 5,700 (2.6%) were called active. The shares of active, inactive and inconclusive entries below differ from those in the screen. Calls come from the whole dose curve; as a rule, active = well fitted inhibition curve with a large enough effect; inconclusive = small, poorly fitted or top-dose-only effect; inactive = no such curve, though single readings can be large or run the other way. Where the call is inconclusive, the potency comes from a doubtful curve fit.

These molecules were tested against Lysine-specific demethylase 5B (Homo sapiens) (UniProt Q9UGL1) (assay: Primary screen for KDM5B Histone Demethylases FDH-coupled qHTS). Conditions: FDH-coupled NADH fluorescence (FDH is formaldehyde dehydrogenase); activity change, negative = inhibition: at 57.7 µM (top of the series) unless noted.
Chain of UniProt Q9UGL1 (Q9UGL1 whole entry, looked up): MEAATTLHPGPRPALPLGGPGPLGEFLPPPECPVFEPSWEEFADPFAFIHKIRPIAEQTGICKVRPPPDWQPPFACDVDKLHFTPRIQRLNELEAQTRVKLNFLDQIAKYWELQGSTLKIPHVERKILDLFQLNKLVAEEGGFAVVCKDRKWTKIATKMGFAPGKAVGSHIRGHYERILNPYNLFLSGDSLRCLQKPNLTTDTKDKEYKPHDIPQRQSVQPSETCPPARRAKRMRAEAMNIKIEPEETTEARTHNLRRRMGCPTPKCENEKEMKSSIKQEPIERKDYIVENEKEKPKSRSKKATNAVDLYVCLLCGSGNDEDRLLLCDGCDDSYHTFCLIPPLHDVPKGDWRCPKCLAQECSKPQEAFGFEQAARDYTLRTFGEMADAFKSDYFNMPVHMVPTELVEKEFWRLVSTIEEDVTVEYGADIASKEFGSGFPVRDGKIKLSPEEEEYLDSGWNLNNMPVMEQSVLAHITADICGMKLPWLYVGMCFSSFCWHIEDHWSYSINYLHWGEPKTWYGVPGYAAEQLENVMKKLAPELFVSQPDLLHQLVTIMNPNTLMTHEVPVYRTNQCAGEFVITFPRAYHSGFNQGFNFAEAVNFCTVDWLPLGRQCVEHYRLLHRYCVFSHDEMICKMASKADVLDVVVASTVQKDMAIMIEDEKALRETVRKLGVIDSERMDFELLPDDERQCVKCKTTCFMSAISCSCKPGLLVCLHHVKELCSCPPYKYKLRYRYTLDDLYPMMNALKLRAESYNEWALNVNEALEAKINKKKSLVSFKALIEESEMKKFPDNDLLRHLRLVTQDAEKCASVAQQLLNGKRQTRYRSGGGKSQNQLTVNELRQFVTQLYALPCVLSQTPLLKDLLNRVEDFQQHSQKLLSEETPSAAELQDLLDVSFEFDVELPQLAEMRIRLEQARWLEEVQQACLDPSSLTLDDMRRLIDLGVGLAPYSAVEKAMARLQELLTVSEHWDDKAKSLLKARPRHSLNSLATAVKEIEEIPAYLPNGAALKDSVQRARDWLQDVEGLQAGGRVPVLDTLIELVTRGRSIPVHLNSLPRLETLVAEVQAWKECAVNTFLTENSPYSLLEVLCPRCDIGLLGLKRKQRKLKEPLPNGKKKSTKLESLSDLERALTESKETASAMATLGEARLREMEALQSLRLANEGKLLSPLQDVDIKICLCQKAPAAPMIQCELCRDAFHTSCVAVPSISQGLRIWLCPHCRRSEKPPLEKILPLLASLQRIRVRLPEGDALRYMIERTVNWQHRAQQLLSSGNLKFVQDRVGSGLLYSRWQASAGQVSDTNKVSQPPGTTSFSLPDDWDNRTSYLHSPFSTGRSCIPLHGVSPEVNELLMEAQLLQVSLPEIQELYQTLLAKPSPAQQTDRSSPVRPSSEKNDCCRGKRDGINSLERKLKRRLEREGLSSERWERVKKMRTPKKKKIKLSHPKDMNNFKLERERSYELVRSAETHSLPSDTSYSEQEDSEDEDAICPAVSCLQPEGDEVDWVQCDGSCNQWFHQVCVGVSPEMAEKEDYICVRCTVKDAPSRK
Procedure, shortened: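 Compound dilutions met 200 nM (final) KDM5BΔAP for 10 min at room temperature before substrate addition. The substrate mix held 12.5 µM H3K4me3 with cofactors 25 µM α-ketoglutarate and 50 µM Fe²⁺. NADH signal gain over 30 min defined activity.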
Note: nearly all actives have a fitted effect of over 70% in size.
Potency is the fitted concentration of half-maximal effect; tags give direction and shape of the fitted curve.
Throughout, for activity change, negative = inhibition: 0% is about no effect.

Question: For `COC[C@H]1CCCN1C(=O)CC[C@H]1CNC(=O)[C@@H]2[C@@H](CCN2C)N1C`, which “activity change, negative = inhibition” value is on record?
Answer: The value was inactive: -34.1% [at 86.2 µM].

Question: `O=C(NC[C@@H]1CCCN1)c1ccc(S(=O)(=O)NCc2ncc[nH]2)cc1` was tested. Which Potency did it give?
Answer: The Potency was inconclusive: 10 µM [inhibitor, partial curve, poor fit].

Question: Which Potency does the source give for `Cc1ccc2c(c1)c(CC(=O)Nc1ccc(C)c(F)c1)c(C(=O)O)n2C` here?
Answer: Its Potency is inconclusive: 35.5 µM [inhibitor, single point].

Question: How did the activity change, negative = inhibition turn out when `CCOc1cccc(C2c3[nH]c4ccccc4c3CCN2C(=O)CSCc2ccc(F)cc2)c1` (stereo unspecified) was run?
Answer: The activity change, negative = inhibition was inconclusive: -31.4% [inhibitor].

Question: `COCCN1CCCN(C(=O)C2CC2)c2ccccc21` was tested. Which Potency did it give?
Answer: The Potency was inconclusive: 14.1 µM [inhibitor, partial curve].

Question: For `Cc1ccc(-c2ccc3nnc(CNC(=O)c4cc(C)ccc4C)n3n2)cc1`, which Potency is on record?
Answer: Its Potency is inconclusive: 31.6 µM [inhibitor, partial curve, poor fit].

Question: `COc1ccc(CCNC(=O)c2ccc(N3CC4CC(C3)[C@H]3CCCC(=O)N3C4)nc2)cc1OC` (stereo partly specified) was tested. Which Potency did it give?
Answer: The Potency was inconclusive: 25.1 µM [inhibitor, partial curve, poor fit].

Question: Which Potency does the source give for `Cc1c(CC(=O)NC(C)C)c(=O)oc2cc3c(cc12)CCC(C)(C)O3` here?
Answer: The Potency was inconclusive: 20 µM [inhibitor, partial curve, poor fit].

Question: With `Cc1nc(-c2cccc(Cl)c2)n(Cc2nc(-c3ccccc3)oc2C)c(=O)c1CCO` as the molecule, how does the Potency read?
Answer: The Potency was inconclusive: 12.6 µM [inhibitor, single point].

Question: How did the Potency turn out when `CN(C)S(=O)(=O)c1ccc(-c2nc(C#N)c(NCc3ccc(F)cc3)o2)cc1` was run?
Answer: Its Potency is inconclusive: 3.55 µM [inhibitor, full curve, poor fit].

Question: How did the Potency turn out when `O=C(NCc1ccc(C(=O)N2CCCCCC2)cc1)c1cc(=O)[nH]c2ccccc12` was run?
Answer: The Potency was inconclusive: 28.2 µM [inhibitor, single point].

Question: Which activity change, negative = inhibition does the source give for `COc1ccccc1N(CC(=O)Nc1ccc2c(c1)OCO2)S(=O)(=O)c1ccc(C)cc1` here?
Answer: Its activity change, negative = inhibition is inconclusive: -32.6% [inhibitor].

Question: For `COc1ccc(-n2nc(C(=O)NCC(=O)N3CCCCCC3)c3ccccc3c2=O)cc1Cl`, which Potency is on record?
Answer: The Potency was inconclusive: 31.6 µM [inhibitor, partial curve, poor fit].

Question: How did the “activity change, negative = inhibition” value turn out when `COc1ccc(C(=O)Nc2oc3ccccc3c(=O)c2-c2cccc(C)c2)cc1` was run?
Answer: The value was inactive: 13.8%.

Question: `O=C(CN1c2ccccc2S(=O)(=O)c2ccccc21)Nc1ccccc1Cl` was tested. Which Potency did it give?
Answer: Its Potency is inconclusive: 35.5 µM [inhibitor, single point].

Question: With `Cn1c(=O)[nH]c(=O)c2c1nc(N1CCN(Cc3cccc(Cl)c3)CC1)n2Cc1ccccc1F` as the molecule, how does the “activity change, negative = inhibition” value read?
Answer: Its value is inactive: -0.225%.

Question: Which Potency does the source give for `Cc1nc(C)c(C(=O)N2CCC3(CC2)CN(c2ncccn2)CC3CO)s1` (stereo unspecified) here?
Answer: The Potency was active: 25.1 µM.

Question: `Cc1ccccc1C1C2=C(COC2=O)Nc2c1c(=O)n(C)c(=O)n2C` (stereo unspecified) was tested. Which Potency did it give?
Answer: The Potency was inconclusive: 25.1 µM [inhibitor, partial curve, poor fit].

Question: For `CCc1cccc(NC(=O)c2cc3n(n2)CC(c2ccc4c(c2)OCO4)OC3)c1` (stereo unspecified), which Potency is on record?
Answer: The Potency was inconclusive: 25.1 µM [inhibitor, single point].

Question: For `O=C(NC[C@H]1O[C@@H](CO)[C@@H](O)[C@H]1N1CCN(c2cccc(C(F)(F)F)c2)CC1)Nc1ccc(F)cc1F`, which Potency is on record?
Answer: Its Potency is inconclusive: 17.8 µM [inhibitor, partial curve].

Question: With `O=C(Nc1nc2n(n1)C(c1ccc(Cl)cc1)C=C(c1ccccc1)N2)c1ccco1` (stereo unspecified) as the molecule, how does the Potency read?
Answer: The Potency was inconclusive: 28.2 µM [inhibitor, partial curve, poor fit].

Question: `Cc1nn(C)c2c1c(C(F)(F)F)cc(=O)n2C(C)C(=O)NCCc1ccccc1` (stereo unspecified) was tested. Which Potency did it give?
Answer: The Potency was inconclusive: 31.6 µM [inhibitor, partial curve, poor fit].

Question: `COCCOC(=O)CSc1ncccc1-c1nc2cc(C)c(C)cc2[nH]1` was tested. Which Potency did it give?
Answer: The Potency was inconclusive: 28.2 µM [inhibitor, partial curve, poor fit].

Question: For `N#CC(C(=O)CSc1ccc2c(c1)OCCO2)c1nc(-c2ccccc2)cs1` (stereo unspecified), which “activity change, negative = inhibition” value is on record?
Answer: The value was inactive: -4.17%.

Question: For `Cc1cc(-c2cc3c(cn2)CN(CC2CCOCC2)CCN3)ccn1`, which Potency is on record?
Answer: Its Potency is active: 35.5 µM.

Question: Which “activity change, negative = inhibition” value does the source give for `COCCOC1CN(C2CCN(C(=O)c3ccc(C)s3)CC2)C12CCCCC2` (stereo unspecified) here?
Answer: Its value is inactive: -7.18%.

Question: `Cc1ccccc1C(=O)N1CCC(C(=O)Nc2ccc(C)c(S(=O)(=O)N3CCCCC3)c2)CC1` was tested. Which “activity change, negative = inhibition” value did it give?
Answer: Its value is inactive: 9.17%.

Question: How did the Potency turn out when `OCc1cnc(SCc2ccc(F)cc2)n1Cc1ccc(F)cc1` was run?
Answer: Its Potency is inconclusive: 3.16 µM [inhibitor, partial curve, poor fit].

Question: How did the Potency turn out when `COCc1cc(CNC(=O)C2(Oc3ccc(Cl)cc3)CCNCC2)[nH]n1` was run?
Answer: The Potency was inconclusive: 6.31 µM [inhibitor, partial curve, poor fit].

Question: For `CC1(CCCCN2CCOCC2)COc2ccc(C(=O)Nc3cccnc3)cc2N1` (stereo unspecified), which Potency is on record?
Answer: The Potency was inconclusive: 28.2 µM [inhibitor, single point].

Question: Which “activity change, negative = inhibition” value does the source give for `CC1=C(C(=O)Nc2ccc(C(=O)NCCC(C)C)c(Cl)c2)SCCO1` here?
Answer: Its value is inactive: 7.75%.

Question: `NS(=O)(=O)c1ccc(NC(=O)c2c(F)cccc2Cl)cc1` was tested. Which “activity change, negative = inhibition” value did it give?
Answer: The value was inactive: 29.4%.

Question: Which “activity change, negative = inhibition” value does the source give for `Cc1cc(OCCCn2c(CCNC(=O)C3CCCCC3)nc3ccccc32)ccc1Cl` here?
Answer: The value was inactive: 10.6%.

Question: For `CC(C)CC(NC(=O)COc1ccccc1)C(=O)N(C)C` (stereo unspecified), which “activity change, negative = inhibition” value is on record?
Answer: The value was inactive: -5.79%.

Question: Which Potency does the source give for `O=C(CSc1n[nH]c(-c2ccccc2)n1)N1CCN(c2ccccc2F)CC1` here?
Answer: Its Potency is inconclusive: 3.16 µM [inhibitor, full curve, poor fit].

Question: For `COC(=O)c1ccccc1NC(=S)NC(=O)c1ccc2c(c1)OCO2`, which Potency is on record?
Answer: The Potency was inconclusive: 25.1 µM [inhibitor, partial curve, poor fit].

Question: `CN(C)c1cccc(-c2cnc3[nH]cc(CC(=O)NCc4cccnc4)c3c2)c1` was tested. Which Potency did it give?
Answer: Its Potency is inconclusive: 25.1 µM [inhibitor, single point].

Question: For `C/C(CC(=O)Nc1cc(C)ccn1)=N\NC(=O)c1cccc(C)c1O`, which Potency is on record?
Answer: The Potency was inconclusive: 31.6 µM [inhibitor, single point].

Question: With `COc1ccc(-c2cc(C(=O)NC3CC3)c3c(C4CCNC4)nn(C)c3n2)cc1` (stereo unspecified) as the molecule, how does the Potency read?
Answer: Its Potency is active: 79.4 µM.

Question: How did the “activity change, negative = inhibition” value turn out when `COc1ccc(CCNC(=O)c2ccc(N(C)S(=O)(=O)c3ccccc3)cc2)cc1` was run?
Answer: The value was inactive: 3.68%.

Question: `Cc1cccc(OCC2(CNC(=O)c3cccc(F)c3)C[C@@H](O)[C@@H](O)C2)n1` (stereo partly specified) was tested. Which “activity change, negative = inhibition” value did it give?
Answer: Its value is inactive: 31.3% [at 86.2 µM].

Question: `O=C(O)c1cc(S(=O)(=O)NC2CCCc3ccccc32)ccc1O` (stereo unspecified) was tested. Which Potency did it give?
Answer: The Potency was inconclusive: 22.4 µM [inhibitor, partial curve, poor fit].

Question: Which Potency does the source give for `Cc1ccc(C(=O)NCc2nnc3c(-c4nc(C(C)C)no4)cccn23)cc1` here?
Answer: The Potency was inconclusive: 28.2 µM [inhibitor, partial curve, poor fit].

Question: Which Potency does the source give for `COc1ccc(C(=O)N2C[C@@H](Oc3cccnc3)C[C@H]2C(=O)N2CCCC2)cn1` here?
Answer: The Potency was inconclusive: 35.5 µM [inhibitor, partial curve, poor fit].

Question: Which Potency does the source give for `CC(=O)c1cc(CN2CCCC(C(=O)c3cccc(OC(C)C)c3)C2)cs1` (stereo unspecified) here?
Answer: Its Potency is inconclusive: 28.2 µM [inhibitor, single point].

Question: With `COc1ccc(OCCN(C)Cc2c(O)ccc3ccccc23)cc1` as the molecule, how does the Potency read?
Answer: Its Potency is inconclusive: 28.2 µM [inhibitor, single point].

Question: How did the Potency turn out when `O=C(NC1CCN(c2cc(-c3cccs3)[nH]n2)C1)c1ccncc1` (stereo unspecified) was run?
Answer: The Potency was inconclusive: 15.8 µM [inhibitor, single point].

Question: `O=C(c1ccoc1)N1CCC2(CC1)CN(c1ccncn1)CC2CO` (stereo unspecified) was tested. Which “activity change, negative = inhibition” value did it give?
Answer: The value was inactive: 17.1%.

Question: `O=C(O)C1CCc2nnc(C3CCCN(C(=O)c4ccc5c(c4)OCO5)C3)n21` (stereo unspecified) was tested. Which “activity change, negative = inhibition” value did it give?
Answer: The value was inactive: -1.58% [at 115 µM].

Question: `CN1Cc2ccc(NCc3ccccc3)nc2C(C)(C(=O)NCc2ccccc2)C1` (stereo unspecified) was tested. Which “activity change, negative = inhibition” value did it give?
Answer: Its value is inactive: 165% [at 86.2 µM].

Question: How did the Potency turn out when `COc1ccc(-c2cn3c(n2)sc2cc(C(=O)NC4CCCCCC4)ccc23)cc1` was run?
Answer: The Potency was inconclusive: 15.8 µM [inhibitor, partial curve, poor fit].

Question: Which Potency does the source give for `O=C1c2ccccc2NC(c2csc(-c3ccc(Cl)cc3)n2)N1Cc1ccco1` (stereo unspecified) here?
Answer: The Potency was inconclusive: 25.1 µM [inhibitor, single point].

Question: For `Cc1cc(C)n(CC(=O)N(C)C2CCc3nn(CC4CC4)c(=O)n3CC2)n1` (stereo unspecified), which Potency is on record?
Answer: The Potency was inconclusive: 28.2 µM [inhibitor, partial curve, poor fit].

Question: How did the Potency turn out when `CC(NC(=O)c1nccnc1N)c1ccc(F)cc1` (stereo unspecified) was run?
Answer: Its Potency is inconclusive: 25.1 µM [inhibitor, partial curve, poor fit].

Question: How did the “activity change, negative = inhibition” value turn out when `CCC(C)(C)C1CCc2c(sc(NC(=O)C3CC4CCC3C4)c2C#N)C1` (stereo unspecified) was run?
Answer: The value was inactive: -9.14%.

Question: With `CCCCNc1nc(-c2ccc(S(C)(=O)=O)cc2)cs1` as the molecule, how does the Potency read?
Answer: Its Potency is inconclusive: 22.4 µM [inhibitor, partial curve, poor fit].

Question: `Cn1c2c(c3ccccc31)CN(C(=O)Nc1ccccc1)CC2` was tested. Which Potency did it give?
Answer: The Potency was active: 22.4 µM.

Question: For `COc1ccc(-c2cn3cc(C(=O)NCC(N)=O)nc3c(=O)n2CC2CC2)c(F)c1`, which “activity change, negative = inhibition” value is on record?
Answer: The value was inactive: -19.4%.

Question: With `COc1ccc(-c2cc3ccc(O)c(CN4CCCC(C)C4)c3oc2=O)cc1` (stereo unspecified) as the molecule, how does the Potency read?
Answer: The Potency was inconclusive: 28.2 µM [inhibitor, partial curve, poor fit].

Question: `O=C(NCCc1ccco1)c1nnc(C(=O)Nc2cccc(Cl)c2)s1` was tested. Which Potency did it give?
Answer: Its Potency is inconclusive: 10 µM [inhibitor, partial curve, poor fit].

Question: How did the Potency turn out when `CC1=C(C(=O)OCCBr)C(c2cccc3ccccc23)NC(=O)N1` (stereo unspecified) was run?
Answer: Its Potency is inconclusive: 39.8 µM [inhibitor, partial curve, poor fit].

Question: Which “activity change, negative = inhibition” value does the source give for `O=C(NCc1nnnn1-c1ccccc1)C1NCCc2[nH]cnc21` (stereo unspecified) here?
Answer: Its value is inactive: -13.3%.

Question: How did the “activity change, negative = inhibition” value turn out when `COCCn1cnc2c1c(=O)n(CC(=O)OCCOc1ccccc1F)c(=O)n2Cc1ccccc1` was run?
Answer: The value was inactive: 27.5%.

Question: Which Potency does the source give for `Cc1ccc2cc(C(=O)NCC3CCS(=O)(=O)C3)[nH]c2c1` (stereo unspecified) here?
Answer: The Potency was inconclusive: 31.6 µM [inhibitor, partial curve, poor fit].

Question: With `CSCc1cccc(C(=O)N(CC2CCOC2)C2CC2)c1` (stereo unspecified) as the molecule, how does the “activity change, negative = inhibition” value read?
Answer: Its value is inactive: 26.2%.

Question: `CC(C)CC(=O)NCC(=O)N1CCN(c2ccccn2)CC1` was tested. Which Potency did it give?
Answer: The Potency was active: 25.1 µM.
